The GPR68 mutational scans of Howard et al. (2025)
Scores with a large standard error are left out. The source holds two more conditions with little spread; they are left out. Names with del lack the residues named; names with ins carry added residues between the positions named. For some assays here: How much ogerin was present is not stated here.

B1: GPR68, Q15743 (parent)
chain: MGNITADNSSMSCTIDHTIHQTLAPVVYVTVLVVGFPANCLSLYFGYLQIKARNELGVYLCNLTVADLFYICSLPFWLQYVLQHDNWSHGDLSCQVCGILLYENIYISVGFLCCISVDRYLAVAHPFRFHQFRTLKAAVGVSVVIWAKELLTSIYFLMHEEVIEDENQHRVCFEHYPIQAWQRAINYYRFLVGFLFPICLLLASYQGILRAVRRSHGTQKSRKDQIQRLVLSTVVIFLACFLPYHVLLLVRSVWEASCDFAKGVFNAYHFSLLLTSFNCVADPVLYCFVSETTHRDLARLRGACLAFLTCSRTGRAREAYPLGAPEASGKSGAQGEEPELLTKLHPAFQTPNSPGSGGFPTGRLA

Key:
[1] = variants of: B1; experiment: cAMP reporter score (Enrich2 score, wild type = 0); higher = more signal; HEK293T, FACS bins; conditions: modulator: ogerin
[2] = variants of: B1; experiment: surface expression score (Enrich2 score, wild type = 0); higher = more signal; HEK293T, FACS bins

| Variant | cAMP reporter score ([1]; pH 6) | surface expression score [2] | cAMP reporter score ([1]; pH 6.5) |
| --- | --- | --- | --- |
| MGNITADNSSMSCTIDHTIHQTLAPVVYVTVLVVGFPANCLSLYFGYLQIKARNELGVYLCNLTVADLFYICSLPFWLQYVLQHDNWSHGDLSCQVCGILLYENIYISVGFLCCISVDRYLAVAHPFRFHQFRTLKAAVGVSVVIWAKELLTSIYFLMHEEVIEDENQHRVCFEHYPIQAWQRAINYYRFLVGFLFPICLLLASYQGILRAVRRSHGTQKSRKDQIQRLVLSTVVIFLACFLPYHVLLLVRSVWEASCDFAKGVFNAYHFSLLLRSFNCVADPVLYCFVSETTHRDLARLRGACLAFLTCSRTGRAREAYPLGAPEASGKSGAQGEEPELLTKLHPAFQTPNSPGSGGFPTGRLA [T275R] | 0.033 |  |  |
| MGNITADNSSMSCTIDHTIHQTLAPVVYVTVLVVGFPANCLSLYFGYLQIKARNELGVYLCNLTVADLFYICSLPFWLQYVLQHDNWSHGDLSCQVCGILLYENIYISVGFLCCISVDRYLAVAHPFRFHQFRTLKAAVGVSVVIWAKELLTSIYFLMHEEVIEDENQHRVCFEHYPIQAWQRAINYYRFLVGFLFPICLLLASYQGILRAVRRSHGTQKSRKDQIQRLVLSTVVIFLACFLPYHVLLLVRSVWEASCDFAKGVFNAYHFSLLLTSFNCVADPVLYCFVSETTHRDLARLRGACLAFLTCWRTGRAREAYPLGAPEASGKSGAQGEEPELLTKLHPAFQTPNSPGSGGFPTGRLA [S311W] | -0.629 | 1.35 |  |
| MGNITADNSSMSCTIDHTIHQTLAPVVYVTVLVVGFPANCLSLYFGYLQIKARNELGVYLCNLTVADLFYICSLPFWLQYVLQHDNWSHGDLSCQVCGILLYENIYISVGFLCCISVDRYLAVAHPFRFHQFRTLKAAVGVSVVIWAKELLTSIYFLMHEEVIEDENQHRVCFEHYPIQAWQRAINYYRFLVGFLFPICLLLASYQGILRAVRRSHGTQKSRKDQIQRLVLSTVVIFLACFLPYHVLLLVRSVWEASCDFAKGVFNAYHFSLLLTSFNCVADPVLYCFVSETTHRDLARLRGACLAFLTCSRTGRAREAYPLGAPENSGKSGAQGEEPELLTKLHPAFQTPNSPGSGGFPTGRLA [A327N] | 0.724 | 2.1 | 1.73 |
| MGNITADNSSMSCTIDHTIHQTLAPVVYVTVLVVGFPANCLSLYFGYLQIKARNELGVYLCNLTVADLFYICSLPFWLQYVLQHDNWSHGDLSCQVCGILLYENIYISVGFLCCISVDRYLAVAHPFRFHQFRTLKAAVGVSVVIWAKELLTSIYFLMHEEVIEDENQHRVCFEHYPIQAWQRAINYYRFLVGFLFPICLLLASYQGILRAVRRSHGTQKSRKDQIQRLVLSTVVIFLACFLPYHVLLLVRSVWEASCDFAKGVFNAYHFSLLLTSFNCVADPVLYCFVSETTHRDLARLRGACLAFLTCSRTGRAREAYPLGAPEASGHSGAQGEEPELLTKLHPAFQTPNSPGSGGFPTGRLA [K330H] | 2.63 | -0.012 |  |
| MGNITADNSSMSCTIDHTIHQTLAPVVYVTVLVVGFPANCLSLYFGYLQIKARNELGVYLCNLTVADLFYICSLPFWLQYVLQHDNWSHGDLSCQVCGILLYENIYISVGFLCCISVDRYLAVAHPFRFHQFRTLKAAVGVSVVIWAKELLTSIYFLMHEEVIEDENQHRVCFEHYPIQAWQRAINYYRFLVGFLFPICLLLASYQGILRAVRRSHGTQKSRKDQIQRLVLSTVVIFLACFLPYHVLLLVRSVWEASCDFAKGVFNAYHFSLLLTSFNCVADPVLYCFVSETTHRDLARLRGACLAFLTCSRTGRAREAYPLGAPEASGRSGAQGEEPELLTKLHPAFQTPNSPGSGGFPTGRLA [K330R] | -0.609 | -0.329 |  |
| MGNITADNSSMSCTIDHTIHQTLAPVVYVTVLVVGFPANCLSLYFGYLQIKARNELGVYLCNLTVADLFYICSLPFWLQYVLQHDNWSHGDLSCQVCGILLYENIYISVGFLCCISVDRYLAVAHPFRFHQFRTLKAAVGVSVVIWAKELLTSIYFLMHEEVIEDENQHRVCFEHYPIQAWQRAINYYRFLVGFLFPICLLLASYQGILRAVRRSHGTQKSRKDQIQRLVLSTVVIFLACFLPYHVLLLVRSVWEASCDFAKGVFNAYHFSLLLTSFNCVADPVLYCFVSETTHRDLARLRGACLAFLTCSRTGRAREAYPLGAPEASGKSGAQGEEPELLTKLHPAFQTWNSPGSGGFPTGRLA [P351W] | 1.35 | 0.577 | 0.547 |
| MGNITADNSSMSCTIDHTIHQTLAPVVYVTVLVVGFPANCLSLYFGYLQIKARNELGVYLCNLTVADLFYICSLPFWLQYVLQHDNWSHGDLSCQVCGILLYENIYISVGFLCCISVDRYLAVAHPFRFHQFRTLKAAVGVSVVIWAKELLTSIYFLMHEEVIEDENQHRVCFEHYPIQAWQRAINYYRFLVGFLFPICLLLASYQGILRAVRRSHGTQKSRKDQIQRLVLSTVVIFLACFLPYHVLLLVRSVWEASCDFAKGVFNAYHFSLLLTSFNCVADPVLYCFVSETTHRDLARLRGACLAFLTCSRTGRAREAYPLGAPEASGKSGAQGEEPELLTKLHPAFQTPNSPGSGGCPTGRLA [F359C] | 0.196 | 1.77 | 0.837 |
| MGNITADNSSMSCTIDHTIHQTLAPVTYVTVLVVGFPANCLSLYFGYLQIKARNELGVYLCNLTVADLFYICSLPFWLQYVLQHDNWSHGDLSCQVCGILLYENIYISVGFLCCISVDRYLAVAHPFRFHQFRTLKAAVGVSVVIWAKELLTSIYFLMHEEVIEDENQHRVCFEHYPIQAWQRAINYYRFLVGFLFPICLLLASYQGILRAVRRSHGTQKSRKDQIQRLVLSTVVIFLACFLPYHVLLLVRSVWEASCDFAKGVFNAYHFSLLLTSFNCVADPVLYCFVSETTHRDLARLRGACLAFLTCSRTGRAREAYPLGAPEASGKSGAQGEEPELLTKLHPAFQTPNSPGSGGFPTGRLA [V27T] |  |  | -0.252 |
